Structures are written as SMILES. Out of some 150,000 compounds screened, about 540 (0.36%) showed an effect of 50% or more. The list shows a part of the results.

The test system of the assay is Plasmodium falciparum. In words: Primary screen in NF54 nanoGlo assay, in single point, at 2uM, 72h; a lower Z score goes with more inhibition. In kind it is functional, Erythrocyte. The settings on record: timepoint 72 hour.
For `CN(C)[C@H]1CCCCN(C(=O)c2ccc3nonc3c2)C1`, the % Inhibition – broadly, the drop in the measured response relative to a control, in per cent – was -2% and the Z score is given as 0.37.
With `COc1ccccc1N1CCN(C(=O)c2cnn3c(-c4ccc(-c5ccccc5)cc4)ccnc23)CC1`, the “% Inhibition” value is -1% and the Z score came out at 0.19.
`O=C(C1CCCC1)N1CCN(C(=O)C2CC2c2ccc3c(c2)OCO3)CC1` (configuration not stated): the “% Inhibition” value is listed as -26% and the Z score is reported as 4.43.
As to `O=C1[C@H]2CN(S(=O)(=O)c3ccc(F)cc3)CCN2C(=O)N1CCO`, the “% Inhibition” value is on record as -1% and the Z score is given as 0.22.
Regarding `Cc1cc2nc(-c3ccccc3)cc(C(=O)N3C[C@@H](O)C[C@H]3CO)c2cc1C`, the “% Inhibition” value amounted to 7% and the Z score is -1.14.
Regarding `CN1CCN(CC2(CS(C)(=O)=O)CC2)c2ccc(Cl)cc21`, the “% Inhibition” value is given as 2% and the Z score is given as -0.33.
The corresponding values for `O=C(NCC(=O)N1CC2(CC2)Oc2ccccc21)N1CCCC1` are -11% and 1.35.
Turning to `Cc1ncsc1CNC1CCCCC1CCCO` (configuration not stated), the “% Inhibition” value was -7% and the Z score was 1.09.
On the same counts, the results for `COc1ccc([C@@H](CC(=O)NCCN2CCOCC2)c2cn(Cc3ccccc3)c3ccccc23)cc1OCc1ccccc1` are -1% and 0.12.
In the case of `O=C(CC[C@H]1CCCN(c2ccc(C(F)(F)F)cn2)C1)N1CCN(c2ccccn2)CC1`, the “% Inhibition” value is -11% and the Z score worked out at 1.65.
With `CNC(=O)[C@@H]1CCCN1S(=O)(=O)c1cccnc1`, the “% Inhibition” value was 23% and the Z score is on record as -2.55.
The corresponding values for `CC(C)CNC(=O)C(=O)Nc1cc(Br)ccc1F` are -7% and 1.
As for `O=C(Nc1nncs1)[C@H]1CCCN(C(=O)c2ccc(F)cc2Cl)C1`, the “% Inhibition” value is listed as -3% and the Z score was 0.29.
`CC(C)c1nocc1C(=O)NCc1cccc2occc12`: the “% Inhibition” value was 0% and the Z score is on record as 0.06.
Consider `O=C(NC[C@H](O)c1ccc(-c2cccs2)s1)c1ccsc1`, for which the “% Inhibition” value came out at 10% and the Z score is reported as -1.36.
Consider `Cn1cc(CNc2ncc(Br)c3ccccc23)cn1`, for which the “% Inhibition” value is on record as -5% and the Z score is reported as 0.7.
On the same counts, the results for `O=C(CO)Nc1ccc(OC(F)(F)F)c(Br)c1` are 22% and -2.81.
On the same counts, the results for `C1=CC[C@H]2CN(c3ccncc3)C[C@H]2C1` are -18% and 1.67.
Regarding `CC(C)c1ccc([C@@H](C)CC(=O)NCC#N)cc1`, the “% Inhibition” value is given as -5% and the Z score is given as 0.73.
As for `O=C(Nc1cc(F)ccc1F)N1CCc2ccccc2[C@@H]1c1ccc(Cl)cc1`, the “% Inhibition” value is -4% and the Z score worked out at 0.52.
Take `CS(=O)(=O)C1CC2CCC(C1)N2S(=O)(=O)Cc1ccccc1` (configuration not stated): the “% Inhibition” value is listed as -11% and the Z score stood at 1.34.
With `Cc1nc2c(C#N)cnn2c(C)c1CCC(=O)N1CCC[C@H]1c1nnc2ccccn12`, the “% Inhibition” value is listed as -14% and the Z score worked out at 1.28.
Turning to `O=C(NCc1ccc(N2CCOCC2)cc1)c1cn(C[C@H]2CCCO2)nn1`, the “% Inhibition” value is recorded as -4% and the Z score is 0.51.
As for `CC[C@@H](Cc1ccccc1Br)C(=O)NCc1ncc[nH]1`, the “% Inhibition” value is -5% and the Z score was found to be 0.61.
Take `NS(=O)(=O)CCN1CCN(C(=O)c2cccc([C@H]3CCOC3)c2)CC1`: the “% Inhibition” value was -2% and the Z score was determined as 0.29.
Turning to `O=C(Nc1ccc(-n2cnnn2)cc1)c1coc(-c2ccccc2)n1`, the “% Inhibition” value is -6% and the Z score turned out to be 1.22.
Take `CN1N=C(C(=O)NCc2ccc(F)c(Cn3ccnc3)c2)CCC1=O`: the “% Inhibition” value is given as -3% and the Z score was determined as 0.59.
On the same counts, the results for `O=C(CCc1ccccc1)Nc1ccc2[nH]ncc2c1` are -10% and 1.48.
Take `O=C(NC1CCCCCC1)c1csc2c1CCCC2`: the “% Inhibition” value was -14% and the Z score is 1.82.
In the case of `COc1ccccc1CN1C(=O)N(c2cccc(C(F)(F)F)c2)[C@H](N(O)C(=O)Nc2cccc(C(F)(F)F)c2)C1(C)C`, the “% Inhibition” value is recorded as 0% and the Z score is 0.
Turning to `CO[C@@H]1C[C@@H](c2nc(C)n[nH]2)N(C(=O)CCc2cccc3c2OCO3)C1`, the “% Inhibition” value is recorded as -8% and the Z score is 1.04.
For `Cc1ccc(-c2noc3nc(C)cc(C(=O)N4CCCCCC4)c23)cc1`, the “% Inhibition” value is 26% and the Z score is on record as -2.98.
Consider `CC[C@H](NCC(=O)N(CC)c1ccccc1)c1ccncc1`, for which the “% Inhibition” value is given as 1% and the Z score is reported as -0.22.
As for `COC(=O)N1CCc2ccc(F)cc2[C@@H]1C(=O)NCCc1ccccc1OC`, the “% Inhibition” value is -3% and the Z score is 0.57.
In the case of `COc1cc2nc(N(C)C)c(CNCCN3CCOCC3)cc2c(OC)c1OC`, the “% Inhibition” value is -2% and the Z score was 0.31.
In the case of `Cn1cc(N2CC[C@H](NC(=O)C(=O)Nc3c(F)cccc3F)C2)cn1`, the “% Inhibition” value is given as -2% and the Z score is recorded as 0.31.
In the case of `Nc1nc2c(c(NCCc3ccc(S(N)(=O)=O)cc3)n1)CCCC2`, the “% Inhibition” value is 11% and the Z score is reported as -1.39.
On to `O=C(c1ccc2c(c1)OCO2)[C@H]1CCCN(C(=O)CCc2cnccn2)C1`, for which the “% Inhibition” value is given as 10% and the Z score is reported as -1.32.
The corresponding values for `CC(C)c1ccc(CN2CC[C@@H](n3c(=O)[nH]c4cccnc43)C2)cc1` are -5% and 0.96.
On to `N#Cc1c(NC(=O)c2ccncc2)sc2c1CCCCC2`, for which the “% Inhibition” value was -6% and the Z score is listed as 0.72.
On to `COc1cc(F)cc(NC(=O)NC[C@H](C)c2nc(C)cs2)c1`, for which the “% Inhibition” value is listed as -21% and the Z score is recorded as 2.37.
With `O=C(Cc1noc2ccccc12)N1CCC(n2cnc3ncccc3c2=O)CC1`, the “% Inhibition” value is -9% and the Z score amounted to 1.61.
In the case of `O=C(CC(=O)NC(=O)c1ccc(Cl)cc1Cl)NC(=O)c1ccc(Cl)cc1Cl`, the “% Inhibition” value is reported as -1% and the Z score came to 0.21.
On to `O=S1(=O)C[C@H](N2CCN(c3ccccc3F)CC2)[C@@H](S(=O)(=O)c2ccccc2)C1`, for which the “% Inhibition” value came out at 41% and the Z score is listed as -5.2.
The corresponding values for `O=C(Nc1nc(-c2ccccc2)cs1)c1cocn1` are -6% and 0.89.
For `CCOC1(c2nc(Cc3conc3C)no2)CCCC1`, the “% Inhibition” value is reported as 6% and the Z score is given as -0.78.
In the case of `O=C(c1ccnc(-c2cc(F)cc3cccnc23)c1)N1CCOCC1`, the “% Inhibition” value is -13% and the Z score was 2.
On to `O=C(Cn1c(-c2cnccn2)nc2ccccc21)Nc1nc(-c2ccco2)cs1`, for which the “% Inhibition” value is listed as -3% and the Z score is recorded as 0.55.
The corresponding values for `C[C@@H](Cn1cncn1)NC(=O)c1ncc(F)cc1F` are 9% and -1.23.
On to `O=C1c2ccccc2[C@@H]2C[C@H](O)c3cccn3N12`, for which the “% Inhibition” value is -16% and the Z score is 1.88.
Take `COc1ccccc1CCCN1C(=O)C(C)C(C)C1=O` (configuration not stated): the “% Inhibition” value is -5% and the Z score was found to be 0.71.
As for `Cc1nc(CC(=O)NCc2ccccc2F)sc1C(=O)NCc1ccccc1`, the “% Inhibition” value is given as -12% and the Z score worked out at 1.63.
On the same counts, the results for `O=C(Nc1ccc2oc(C3CC3)nc2c1)C(=O)N[C@H]1CCOc2ccccc21` are 0% and -0.01.
In the case of `Nc1nc2c(c(NCCOc3ccc(Cl)cc3)n1)CCNCC2`, the “% Inhibition” value is on record as -3% and the Z score turned out to be 0.58.
For the molecule `O=c1[nH]c(-c2cnccn2)nc2cc3ccccc3cc12`, the “% Inhibition” value was -8% and the Z score is 0.78.
As for `O=C(NCC(=O)N1CCC1)c1cccc(F)c1`, the “% Inhibition” value is given as 7% and the Z score is reported as -1.11.
On the same counts, the results for `Cc1ocnc1-c1nc(-c2ccccn2)no1` are 0% and -0.04.
Turning to `CC[C@@H]1NC(=O)N(CCCOC(C)c2ccccc2)C1=O` (some centres not stated), the “% Inhibition” value is -1% and the Z score came out at 0.1.
On to `CCn1nccc1C=C(C)c1ncccn1`, for which the “% Inhibition” value is reported as 1% and the Z score is recorded as -0.23.
On the same counts, the results for `CCc1nnsc1C(=O)NC1CCCCCC1` are 37% and -5.05.
For `Cc1cccc(-c2noc([C@@H]3CCCN3)n2)c1`, the “% Inhibition” value was -3% and the Z score came out at 0.48.
Turning to `FC(F)(F)Oc1ccc(C2(NCc3cn[nH]c3)CC2)cc1`, the “% Inhibition” value was found to be 2% and the Z score is -0.17.
On to `CN(C)c1nc2c(c(N3CCCC3)n1)CCN(Cc1cnn(C)c1)CC2`, for which the “% Inhibition” value stood at 3% and the Z score is on record as -0.35.
Consider `COCCCn1ccc(-c2cccc(-c3cnccn3)c2)n1`, for which the “% Inhibition” value is given as -9% and the Z score came out at 1.23.
Regarding `C[C@H]1C(=O)N(C)CCN1c1ncnc2c(F)cccc12`, the “% Inhibition” value is 0% and the Z score turned out to be 0.03.
With `Cc1cc([C@H](C)NC(=O)Nc2ccc(N3CCCC3)c(F)c2)c(C)s1`, the “% Inhibition” value came to 9% and the Z score was -1.64.
On to `Cc1nc(CN2CCN(C(=O)c3ccccn3)[C@H]3CS(=O)(=O)C[C@H]32)no1`, for which the “% Inhibition” value amounted to 8% and the Z score is listed as -1.55.
Take `Cc1cnc(Cn2cnc(-c3ccccc3)c2-c2cc(C)c(C)o2)cn1`: the “% Inhibition” value is given as -14% and the Z score stood at 2.09.
Regarding `CC(C)CC1(C(=O)NCc2nnc3n2CCN(C)C3=O)CCCC1`, the “% Inhibition” value was -13% and the Z score is listed as 1.57.
On the same counts, the results for `CCn1cnnc1CNC(=O)c1ccc2c(c1)OCO2` are 0% and 0.01.
Consider `CCOC(=O)CC1(NC(=O)N2CCN(CC)c3ncccc32)CCCCC1`, for which the “% Inhibition” value is -22% and the Z score stood at 2.53.
Consider `CO[C@](C)(C(=O)O)C(=O)N1CCc2cc(-c3ccccc3)ccc21`, for which the “% Inhibition” value was -7% and the Z score stood at 0.92.
On the same counts, the results for `Cc1nc(Nc2ccc3c(c2)OCCO3)cc(-c2ccccc2)n1` are 5% and -0.89.
As for `O=C(N[C@@H]1COCC[C@@H]1OCc1ccccc1)c1cccc(F)c1F`, the “% Inhibition” value is -2% and the Z score was 0.39.
`O=C(NCCn1c(=O)[nH]c2ccsc2c1=O)[C@H]1CCS(=O)(=O)C1`: the “% Inhibition” value is reported as -2% and the Z score came to 0.39.
`Cc1cc(C)c(CNC(=O)N2CCCCCCC2)cn1`: the “% Inhibition” value is -6% and the Z score stood at 1.06.
With `O=C(NCCC1=CCCCC1)c1cc2n(n1)CCCO2`, the “% Inhibition” value was -21% and the Z score was found to be 3.27.
For `Cc1cccc2c1cc(C(=O)N1CC[C@@]3(CCCN(CCO)C3=O)C1)n2C`, the “% Inhibition” value is on record as -8% and the Z score was determined as 1.38.
In the case of `CCCn1cc(NC(=O)C(=O)Nc2ccnn2-c2ccncc2)cn1`, the “% Inhibition” value was -7% and the Z score is reported as 0.69.
Take `CCc1cc(C(=O)N2CC[C@@]3(CCCN(Cc4cccc(OC)c4)C3)C2)on1`: the “% Inhibition” value is -5% and the Z score was found to be 0.79.
Regarding `Cc1cc(C#N)ccc1S(=O)(=O)N1CC(=O)Nc2c(C)ccnc21`, the “% Inhibition” value was -4% and the Z score is 0.48.
On the same counts, the results for `CCC(=O)N1CCCN(CCc2ccc(CC)cc2)CC1` are -3% and 0.42.
Take `CC(C)(C)OC(=O)N1CCN(C2CCCN(C(=O)C3CC3c3ccco3)C2)C(=O)C1` (configuration not stated): the “% Inhibition” value is listed as -7% and the Z score is 0.62.
On the same counts, the results for `CCn1cnnc1CN1CCC2(CCC(=O)N(CCOC)C2)CC1` are 1% and -0.19.
Consider `Cc1cn(-c2c(F)cccc2F)nc1C(=O)N(C)CC1(O)CCCC1`, for which the “% Inhibition” value is -2% and the Z score came to 0.3.
The corresponding values for `CCc1cc(C(=O)NCCN2CCOCC2)cs1` are -7% and 1.05.

The values above are taken from ChEMBL document CHEMBL4888484, “Replenishing the malaria drug discovery pipeline: Screening and hit evaluation of the MMV Hit Generation Library 1 (HGL1) against asexual blood stage Plasmodium falciparum ,using a nano luciferase reporter read-out” (2022).
